Assay results from paper PMC4336329 (PLoS ONE, 2015).
About 14,000 (4.5%) of roughly 310,000 compounds showed an effect of 50% or more. The effect is printed as a negative number. The list shows a part of the results.

The molecules below were run against human ether-à-go-go-related gene (hERG) potassium channel (human, UniProt Q12809) (assay: primary screen, population patch clamp on CHO cells stably expressing hERG).
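Further: peak tail current of the secondary pulse compared with the same well before compound.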

Sequence of human ether-à-go-go-related gene (hERG) potassium channel (Q12809 whole entry, looked up): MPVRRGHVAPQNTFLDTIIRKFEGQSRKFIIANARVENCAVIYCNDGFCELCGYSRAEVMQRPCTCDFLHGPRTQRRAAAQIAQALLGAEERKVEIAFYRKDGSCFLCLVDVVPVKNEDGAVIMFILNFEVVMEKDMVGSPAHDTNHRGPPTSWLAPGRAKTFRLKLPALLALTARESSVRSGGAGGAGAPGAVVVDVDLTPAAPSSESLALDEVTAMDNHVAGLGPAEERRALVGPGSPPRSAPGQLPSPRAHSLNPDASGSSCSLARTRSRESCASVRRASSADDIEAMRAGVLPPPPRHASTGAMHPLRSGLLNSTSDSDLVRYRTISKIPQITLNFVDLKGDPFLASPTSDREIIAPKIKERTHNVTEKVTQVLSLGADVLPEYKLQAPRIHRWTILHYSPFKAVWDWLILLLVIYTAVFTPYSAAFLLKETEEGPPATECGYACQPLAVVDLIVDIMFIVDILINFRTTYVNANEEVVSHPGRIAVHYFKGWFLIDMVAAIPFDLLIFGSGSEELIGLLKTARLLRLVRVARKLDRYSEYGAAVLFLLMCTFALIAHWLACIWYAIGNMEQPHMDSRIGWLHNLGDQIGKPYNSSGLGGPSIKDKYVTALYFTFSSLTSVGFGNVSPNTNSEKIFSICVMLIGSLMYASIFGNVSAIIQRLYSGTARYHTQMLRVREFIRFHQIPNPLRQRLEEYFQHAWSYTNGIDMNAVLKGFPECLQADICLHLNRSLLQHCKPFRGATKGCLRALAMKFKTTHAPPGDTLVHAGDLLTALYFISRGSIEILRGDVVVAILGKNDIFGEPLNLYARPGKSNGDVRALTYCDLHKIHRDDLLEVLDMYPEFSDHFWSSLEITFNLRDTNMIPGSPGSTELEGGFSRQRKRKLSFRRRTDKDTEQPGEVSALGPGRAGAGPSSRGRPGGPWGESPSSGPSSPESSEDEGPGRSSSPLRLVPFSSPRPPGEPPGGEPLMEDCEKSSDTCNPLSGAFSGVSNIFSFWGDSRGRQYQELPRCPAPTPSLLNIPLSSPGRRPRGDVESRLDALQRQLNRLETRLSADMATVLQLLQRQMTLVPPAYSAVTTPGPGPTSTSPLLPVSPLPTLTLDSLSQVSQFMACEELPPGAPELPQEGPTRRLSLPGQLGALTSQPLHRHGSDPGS

| SMILES | hERG current change (%, negative = inhibition) at 10uM [%] |
| --- | --- |
| CCOC(=O)N1CCC(NC(=O)C2CCN(S(=O)(=O)c3c(C)noc3C)CC2)CC1 | 0.661 |
| Cc1ccccc1-c1nc(CS(=O)(=O)CC(=O)NCc2ccc(F)cc2)c(C)o1 | 4.94 |
| O=C1C2CCCN2C(c2ccco2)N1c1ccc(F)cc1 (stereo not shown) | 6.05 |
| COc1ccccc1CNC(=O)COC(=O)Cc1c(Cl)cccc1Cl | 7.12 |
| O=c1cc(C(F)(F)C(F)F)oc2ccccc12 | 3.32 |
| COc1ccc(-c2[nH]ncc2CNCCn2cccn2)c(F)c1 | -46.1 |
| O=c1cc(O)c2c(=O)n(-c3ccccc3)c3c(c2o1)CCCCC3 | -0.822 |
| N#Cc1nc(-c2ccccc2F)oc1NCc1ccccc1 | 4.98 |
| COc1ccc(C(c2sc3ncnn3c2O)N2CC(C)OC(C)C2)cc1OC (stereo not shown) | 11.8 |
| C=CCN(CC=C)S(=O)(=O)c1ncn[nH]1 | 13.6 |
| COc1ccc(-n2c(Cc3cccn3C)nnc2SCC(=O)Nc2ccc3c(c2)OCO3)cc1 | -19.3 |
| N#CCSc1nnc(-c2ccccc2O)n1Cc1ccccc1 | 5.13 |
| O=C(CC(=O)NCCc1ccccc1)NCCc1ccccc1 | 13.7 |
| Cc1noc(C)c1S(=O)(=O)N1CCC(C(=O)N2CCN(c3ccccc3Cl)CC2)CC1 | -13.6 |
| COc1cccc(-c2ccc(C#N)c(SCC(=O)NCCc3ccc(Cl)cc3)n2)c1 | 0.0399 |
| O=C(CSCc1ccccc1)N1CCN(c2cccc(C(F)(F)F)c2)CC1 | -2.6 |
| Cc1nn(-c2ccc(F)cc2)c2sc(C(=O)OCC(=O)N3CCC(C)CC3)cc12 | -1.12 |
| CCCCN1CNC(=S)N(CCc2ccc(OCC)c(OCC)c2)C1 | 9.26 |
| COc1ccc2cc(C(=O)NCCc3ccccc3)[nH]c2c1 | 15 |
| CC(=O)c1cc(CC=C(C)C)c(O)cc1O | -3.51 |
| CC1CCN(c2ccc(/C=N/n3nnnc3N)cc2[N+](=O)[O-])CC1 | 7.33 |
| O=[N+]([O-])c1ccc(C(O)CN2CCN(c3ccccc3)CC2)cc1 (stereo not shown) | -50.3 |

| SMILES | hERG current change (%, negative = inhibition) at 10uM [%] |
| --- | --- |
| Cc1ccc(S(=O)(=O)n2nnc3ccccc32)c(C)c1C | 13.2 |
| Cc1sc2nc(CN3CCN(S(=O)(=O)c4cccc5nonc45)CC3)[nH]c(=O)c2c1C | -1.9 |
| CCCn1c(N)c(C(=O)NS(=O)(=O)c2ccc(C)cc2)c(=O)n(C)c1=O | 0.404 |
| O=C(O)CC1(CC(=O)Nc2ccc(C(F)(F)F)cc2)CCCC1 | 20.8 |
| C/C(=N\NC(=O)Cc1ccccc1)c1ccc(Cl)s1 | 15.8 |
| CCN1CC=C2C(C#N)=C(N)C(C#N)(C#N)C(CCc3ccccc3)C2C1 (stereo not shown) | -47 |
| COc1ccc(N2CC(C(=O)OCC(=O)Nc3ccccc3C)CC2=O)cc1 (stereo not shown) | 15.6 |
| Br.CO[C@H]1CC=C2CCN3CCC4=C(CC(=O)OC4)[C@]23C1 | 12.7 |
| COc1ccc(Cc2nnc(N/N=C/c3ccc(O)cc3O)[nH]c2=O)cc1OC | -3.34 |
| COc1ccccc1NC(=O)c1ccc(-n2ccnc2)c([N+](=O)[O-])c1 | 15.1 |
| C/C=C/c1ccc(OCC(=O)N(CCOC)c2c(N)n(CCCC)c(=O)[nH]c2=O)c(OC)c1 | 11.2 |
| CC(C)NC(=O)c1ccc2c(=O)n(C3CCCC3)c(=S)[nH]c2c1 | -4.07 |
| CCOC(=O)c1cnc2c(C)cc(C)cc2c1NCCCN1CCOCC1 | -59.7 |
| CC(=O)Nc1ccc(S(=O)(=O)N2CCN=C2C)cc1 | 5.24 |
| COc1ccc(S(=O)(=O)N2CCc3ccccc32)cc1[N+](=O)[O-] | -11.6 |
| Cc1nc2ccc(S(=O)(=O)NCC(=O)N3CCN(c4ccccc4)CC3)cc2s1 | -1.33 |
| C/C(=N/Nc1nc(C)c(C)s1)c1cccc([N+](=O)[O-])c1 | 4.26 |
| CCOc1ccc(C(=O)O)cc1OC | 12.4 |
| COc1ccc2nc(SCC(=O)Nc3cc(C)on3)c(C#N)cc2c1 | 12.8 |
| Cc1ccc(NC(=O)C2CCN(c3ncnc4sc(C)c(C)c34)CC2)cc1S(=O)(=O)N(C)C | -2.54 |
| CC(C)OP(=O)(c1ccc(N(C)C)cc1)C(O)c1ccccc1F (stereo not shown) | 2.11 |
| Cc1ccccc1-n1c(C)nnc1SCc1cc(=O)oc2ccc3ccccc3c12 | -25 |

| SMILES | hERG current change (%, negative = inhibition) at 10uM [%] |
| --- | --- |
| O=C1CCCC2=C1C(c1ccncc1)n1c(nc3ccccc31)N2 (stereo not shown) | 7.66 |
| O=C1N/C(=N/N=C/c2ccc(F)cc2)SC1c1ccccc1 (stereo not shown) | 13 |
| Cc1ccccc1N1C(S)=C(C#N)C(=O)NC12CCCCC2 | -7.37 |
| Cc1nn(Cc2c(F)c(F)c(F)c(F)c2F)c(C)c1NC(=O)c1c(-c2ccccc2)nn(-c2ccccc2)c1C | -0.0218 |
| CC(C)(C)C(=O)Nc1cc2c3c(c1)CC(=O)N3CCC2 | 18.3 |
| Cc1cccc(NC(=O)CN2C(=O)/C(=C3\SC(=S)N(CC4CCCO4)C3=O)c3ccccc32)c1 (stereo not shown) | 12.9 |
| CCCCCCc1ccc(N2C[C@H](Cc3ccccc3)[C@@H](CC(=O)NCc3ccc(OC)cc3)C2=O)cc1 | -4.42 |
| Cc1occc1C(=O)NCc1nc(-c2ccccc2)no1 | 7.13 |
| COc1ccc(CNC(=O)C2(c3ccc(Cl)cc3)CC2)cc1 | 13.7 |
| C[N+](C)(C)CCOP(=O)([O-])OC[C@H](O)CO | 15.5 |
| COc1ccc(C(=O)NC2CC(C)(C)Cc3c2cnn3-c2ccccc2C)c(OC)c1OC (stereo not shown) | -30.9 |
| CCc1ccc(OC(C)c2nnc(SCC(=O)Nc3ncccc3C)n2C)cc1 (stereo not shown) | -14.3 |
| Cc1ccc2occ(/C=N/NC(=O)c3ccncc3)c(=O)c2c1 | 4.1 |
| CCn1c(SCC(=O)Nc2cc(C)on2)nnc1-c1cccc(C)c1 | 4.03 |
| O=C(c1ccc(Cl)cc1[N+](=O)[O-])N(Cc1ccccc1)Cc1ccccc1 | -12.9 |
| CCOC(=O)N1CCN(S(=O)(=O)c2ccc(OCC)c3ccccc23)CC1 | -3.31 |
| CCOC(=O)C1=C(C)N(c2ccc(C)cc2)C(=O)/C1=C\c1cccs1 | 1.45 |
| CN1CCN(c2nc3c(c(=O)n(C)c(=O)n3C)n2Cc2cccc(Br)c2)CC1 | -55.1 |
| Cc1cccc(-c2c3c(=O)n(C)c(=O)n(C)c3cn2C(C)C)c1 | 2.26 |
| Cc1ccc(S(=O)(=O)Nc2cccc(C(=O)NCC(c3ccco3)N3CCCC3)c2)cc1F (stereo not shown) | -38.5 |
| O=C(CCSc1nc(-c2ccc3c(c2)OCO3)cc(C(F)(F)F)n1)NCc1ccccc1 | 5.55 |
| Nc1cc(S(=O)(=O)c2ccc(O)c(N)c2)ccc1O | 13.3 |

| SMILES | hERG current change (%, negative = inhibition) at 10uM [%] |
| --- | --- |
| CC1CCN(C(=O)c2ccccc2NC(=O)Cc2ccccc2)CC1 | 5.89 |
| CCCC(=O)N(Cc1cc(=O)[nH]c2ccccc12)c1ccc(OC)cc1 | 0.327 |
| C=CC(=O)Nc1sc2c(c1C(N)=O)CCCC2 | 8.31 |
| CCC(C)n1c(=N)c(C#N)cc2c(=O)n3cccc(C)c3nc21 (stereo not shown) | -66.9 |
| C=CCN1C=C2C(=O)C(C)(OC(=O)c3ccco3)C(=O)C(C=C)=C2C=C1C1CC1 (stereo not shown) | -13.6 |
| O=C(Cc1cccs1)NCc1cccc(F)c1 | 14.4 |
| O=C(CSc1nc(-c2ccccc2Cl)ns1)NCc1ccco1 | -21.8 |
| COc1cc(OC)c(NC(=O)c2ccc(F)cc2)cc1Cl | 17.8 |
| Cc1cc(NC(=O)CSc2nnc(-c3ccc4c(c3)OCCO4)o2)no1 | 12.6 |
| O=C(CSc1nnnn1-c1ccccc1F)NNC(=O)c1ccco1 | 24.6 |
| CCCN1CCC(=O)N([C@H](CSc2ccc(OC)cc2)CC(C)C)CC1 | -70.8 |
| O=C1C2ON(c3ccccc3)C(c3cccnc3)C2C(=O)N1c1ccc(Cl)c(Cl)c1 (stereo not shown) | 10.5 |
| Cc1ccc(CC(C(=O)O)C(C)C(=O)Nc2ccc(F)cc2)cc1 (stereo not shown) | 5.97 |
| Cc1ccc(-c2nc(Nc3ccccc3)n[nH]2)cc1 | 15.6 |
| Cc1ccccc1OCCCC(=O)Nc1nccs1 | 6.11 |
| O=C(O)c1ccc(NS(=O)(=O)c2cccc3cccnc23)cc1 | -0.717 |
| NC1=NC(=O)/C(=C/c2ccc(Br)cc2)S1 | 25.1 |
| COc1ccc(NC(=S)Nc2ccc(C)c(Cl)c2)cc1OC | -0.237 |
| COc1cccc(C(=O)N/N=C2/SCC(=O)N2CCc2ccc(OC)c(OC)c2)c1 | 5.86 |
| O=C(N/N=C/c1ccco1)c1ccc(C(=O)N/N=C/c2ccco2)o1 | -0.383 |
| CCOc1ccccc1NC(=O)COc1cccc(-n2cnnn2)c1 | -27.2 |
| O=C(NCc1cccnc1)c1ccccc1-c1ccccc1 | -0.462 |
